The text below walks through data of the RNAGym collection of RNA variant scans (doi:10.7554/elife.90254).

B1: OR4K15 (parent)
chain: GUUAACGGUCAUAGGCCAUGGAAACUAGGAGCACCAUUUCGCUGCCAGUGAAGAAAUGAACAAAGAAAAUCUGGGCCAGGCAGGCAUCAAAAGAAAUAGUCUUGCGCUCAACCAGAAAGUCUGUAAUCAUUUUAAGGGUA

Read counts are not given, so values of variants with three or more changes are uncertain.

Variants of B1 are the subject of the series. Description: self-cleavage, relative activity (ratio to wild type); higher = more cleavage; in vitro, sequencing; the parent is a self-cleaving ribozyme.
Turning to U3C U37C A116G, the self-cleavage is 0.57.

Turning to A4G C45G U97C U100C A126G, the self-cleavage stood at 0.79.

Consider A4G A11G U38C A52G A56G A66G A90G A95G, for which the self-cleavage was 1.23.

U3C U70A A118G A126G: the self-cleavage is 0.34.

With A5G A18G A54G U103C, the self-cleavage was found to be 0.7.

On to A4G A18G C105A, for which the self-cleavage amounted to 0.07.

Regarding A4G C45A A126G, the self-cleavage stood at 0.93.

In the case of A5G A60G A63G, the self-cleavage came out at 0.86.

Turning to U3C A36U A89U A96G, the self-cleavage was determined as 1.36.

Turning to A4G U37C A47G U49A A78G A111G, the self-cleavage stood at 0.1.

Regarding U3C U87G U100C A110C U120C, the self-cleavage was 0.17.

A4G G8A U12A: the self-cleavage was 1.56.

For A5G A24G U49C U70C U130C, the self-cleavage turned out to be 0.18.

A5G A60C A66G A69G A82U U103A: the self-cleavage worked out at 1.14.

Take A5G A23G U130C: the self-cleavage came to 0.75.

With A5C G44A U49C A125C, the self-cleavage was 1.02.

Turning to A5G A111G U131C, the self-cleavage was 0.1.

As for U3C A24G U108A, the self-cleavage turned out to be 0.05.

On to A4G A18U U57C A60G, for which the self-cleavage was found to be 0.63.

Regarding U3C A89U U102C, the self-cleavage came out at 1.71.

With A5G A68G U100A U108C U122G, the self-cleavage turned out to be 0.04.

On to A5G A22G U72A, for which the self-cleavage was determined as 0.

A5G G7A U49C U108C: the self-cleavage was 0.06.

For the variant U3C A47G A92G, the self-cleavage is 2.05.

As for U3C A24G U37C, the self-cleavage was determined as 1.18.

With U3C A33G A90G G123A, the self-cleavage was found to be 0.21.

As to A4G U38C A89U U120C, the self-cleavage amounted to 0.73.

Regarding A5G A18U U37C A62G, the self-cleavage stood at 0.27.

On to U3C U97C U122C A126G, for which the self-cleavage worked out at 0.72.

Consider A5G A30G A63G A64G U103C C105U, for which the self-cleavage was determined as 0.08.

In the case of A5G A23G A51G U131C, the self-cleavage came to 0.11.

Regarding A4G U57C A82G U108A, the self-cleavage came out at 0.02.

U3C A56G U108C: the self-cleavage was determined as 0.02.

For the variant A5G C101A A110C, the self-cleavage was found to be 0.03.

For A5C C6A A91G A92G, the self-cleavage stood at 1.65.

Regarding A5G A67G G83A A89U, the self-cleavage came to 1.09.

As to U3G A64U A67G A125G, the self-cleavage was 0.63.

In the case of U3C A22U A64U A69U, the self-cleavage was found to be 0.74.

For the variant A4G A92G G104A, the self-cleavage was found to be 0.02.

In the case of A5G A33G A64G A69G U102C A117G U139C, the self-cleavage worked out at 1.26.

Turning to U3C G28U A33U U37C A67G, the self-cleavage came out at 1.08.

U3C U9C A82G A86G A116G: the self-cleavage was 0.03.

Consider U3C U19C A56U A82G A117G, for which the self-cleavage came to 0.74.

As for A4G A89U A94G, the self-cleavage was determined as 0.78.

Turning to A5G A11G A23G G50U A114U, the self-cleavage came out at 0.09.

Turning to A5G A55G U72G, the self-cleavage was 0.37.

For U3C U38C A96U U122A A126U, the self-cleavage amounted to 0.31.

Consider U3G A47G A60U, for which the self-cleavage was determined as 0.41.

A4G A30G A33C U72C U120C A125G U132C: the self-cleavage amounted to 0.01.

Turning to A5G A51U A92G A125G, the self-cleavage stood at 0.21.

As for A5G A13U A33U A55G A67G A96G, the self-cleavage is 1.23.

Take A5G A55U A62G U127C U131C: the self-cleavage stood at 0.32.

For A4G U39A G104A U132C, the self-cleavage was 0.08.

Consider A5G A78U A98G, for which the self-cleavage is 0.19.

Regarding U3C U9C U39C, the self-cleavage came out at 0.8.

On to A5G A22U U43C A64G U72A A90G, for which the self-cleavage stood at 0.24.

In the case of A5G A11G A66G A94G U130C, the self-cleavage is 0.6.

Regarding A5G A47G A92G A125G, the self-cleavage was determined as 0.28.

As for U3C U19G A24G A51U A67G U100C U122C, the self-cleavage stood at 1.12.

Take U3G A63G U122C: the self-cleavage came out at 1.08.

In the case of A4G A51G A67G A78G U103C, the self-cleavage amounted to 0.1.

Take U3C U43G C77U: the self-cleavage is 1.51.

As for A5G A33U U108C, the self-cleavage is 0.

As to U3C A23G A63G U87C, the self-cleavage was 1.64.

In the case of A5G A27G U57C A68G A69G, the self-cleavage was 0.53.

As for A4G A11G A54G A64G A69G, the self-cleavage amounted to 0.54.

As to U3C U39C U72C, the self-cleavage was 0.03.

On to U3C U57C U132C, for which the self-cleavage came out at 0.91.

In the case of A4G A55G G84U, the self-cleavage stood at 0.71.

Take A4G A86G G123A: the self-cleavage stood at 1.39.

Turning to A4G A62G A114G, the self-cleavage stood at 1.

As to U3C C105A U108C U120C U124A U132C, the self-cleavage stood at 0.

As for A5G A11G U37C U57C, the self-cleavage turned out to be 0.55.

Regarding A5G C17U A91G, the self-cleavage turned out to be 0.45.

Take A5G A23G C32U G48U A98G: the self-cleavage amounted to 0.32.

For A5G A23U A52G A62G A64G C109U, the self-cleavage was 0.19.

As to A5G A13U A18G U39C A54G A64G A78G, the self-cleavage was found to be 0.1.

Turning to A4U A51G A66U A69U U102C, the self-cleavage came out at 1.89.

Take A5G A54G A135G: the self-cleavage was determined as 1.07.

Take A4C A22G A54G: the self-cleavage came to 0.81.

Take A5G A24G A90G U124C: the self-cleavage is 1.18.

Turning to A5C U9G A67G, the self-cleavage amounted to 0.37.

As for A5G A54G A118G, the self-cleavage is 0.63.

For A4G A60G G73A A78U, the self-cleavage was 0.26.

As to U3C A114G A116G, the self-cleavage was found to be 0.13.

With A5G A33U A62G A89U G106A, the self-cleavage is 0.15.

For the variant A5G A51G A67G, the self-cleavage amounted to 0.6.

Consider A5C G20A A36C, for which the self-cleavage was found to be 0.99.

In the case of U3C A62G G104A, the self-cleavage is 0.01.

For the variant U3G A24G U72C, the self-cleavage came to 0.41.

On to U3C A36U U120A, for which the self-cleavage amounted to 1.34.

For U3C A22U U100C, the self-cleavage stood at 1.77.

In the case of A5G A67G U72C U122C, the self-cleavage was found to be 0.28.

For A4G A64G A110U, the self-cleavage stood at 1.17.

For A4G A18U U26C, the self-cleavage was 1.23.

With A5G A90G U102C, the self-cleavage came out at 1.21.

On to A4U A54G A55G A59G U132C U139C, for which the self-cleavage is 0.45.

For the variant A5G A95G A116G, the self-cleavage was 0.76.

Turning to A5C U12C A54U U103C A114G, the self-cleavage came to 0.39.

On to A5G A59G A86G A91G A94G U120C U124C, for which the self-cleavage was 0.02.

With A5G A82G U124C, the self-cleavage worked out at 0.3.

As to U3C A90U U133C, the self-cleavage was found to be 1.4.

Take U3C A55G U72A: the self-cleavage turned out to be 0.05.

As to A4G A33G C76U U124C, the self-cleavage amounted to 0.14.

With A4G U9C A56G A78G A117C A126U, the self-cleavage stood at 0.28.

For U3C U70C U133C, the self-cleavage was determined as 1.74.

For the variant A5G A13G U108A, the self-cleavage was found to be 0.24.

For the variant A4G A90G U132A, the self-cleavage came out at 0.89.

With A5G A54G A67G U72C A117G, the self-cleavage was 0.05.

For U3C U37C A96G U130C, the self-cleavage came out at 0.52.

On to A5G A36U A51G A59U A90G, for which the self-cleavage is 0.37.

On to A5G C42A A55G U57C A69G A96G, for which the self-cleavage turned out to be 0.57.

For A5G A11G A64U, the self-cleavage was 0.48.

Consider U3C A68C A90G, for which the self-cleavage came out at 1.03.

With A4G A22G U38C, the self-cleavage came out at 1.55.

A5G A27G A114G: the self-cleavage worked out at 0.28.

As for A5C G7A U9C U49C A64G, the self-cleavage stood at 2.21.

For the variant A4G A63G A90G A111G, the self-cleavage amounted to 0.11.

In the case of U3C A67G A95G A140G, the self-cleavage came out at 1.68.

Regarding U3C A69G A90G, the self-cleavage is 0.99.

In the case of A4G A47G A55G A82G A86G A118U, the self-cleavage worked out at 0.43.

Take A4C A23U A60U: the self-cleavage came to 1.6.

Take A4G U38C A129G: the self-cleavage is 1.45.

On to A5G A91G U139C, for which the self-cleavage was determined as 0.36.

With A5C A52G A68G, the self-cleavage was determined as 0.88.

For the variant U3C A96G A117G, the self-cleavage was determined as 1.34.

As for A5C C16A A82G, the self-cleavage amounted to 0.56.

U3C U70C A86G A91G: the self-cleavage was 0.06.

As to A5G A78G A89G, the self-cleavage amounted to 0.34.

For the variant A5G A23G A36U A64G, the self-cleavage came out at 0.75.

Regarding U3C A69G A82G, the self-cleavage is 0.51.

Consider A5C A94G U122C, for which the self-cleavage was 1.19.

With A4C U9C A63G A68G U103A, the self-cleavage worked out at 1.18.

Regarding U3C U108C G136A, the self-cleavage worked out at 0.03.

Turning to A5G A54U A68G, the self-cleavage was 1.02.

Take A4G A55U A95G U100C: the self-cleavage came out at 1.4.

Turning to A5G A66G A82G, the self-cleavage turned out to be 0.24.

Take A4G U9C U72C: the self-cleavage is 0.65.

A5G A82G U132A: the self-cleavage is 0.8.

Consider A5G A24G U72C, for which the self-cleavage turned out to be 0.14.

For A5G A36G A52G, the self-cleavage was determined as 1.73.

Turning to A5G A22G A51U, the self-cleavage turned out to be 0.74.

As for A5G G8U A36G, the self-cleavage turned out to be 1.65.

In the case of A5G A67G A95G A98G U102C, the self-cleavage was 1.76.

As to A5C A59G U87A A111G, the self-cleavage worked out at 0.04.

As for A5G A30U A33G U43A A60G A91G, the self-cleavage was 1.66.

A5G A62G C76A A135G: the self-cleavage turned out to be 0.16.

Turning to U3C U49C A89C A94G U127C, the self-cleavage is 1.37.

On to A5G A63G A64U A82U, for which the self-cleavage is 0.31.

Turning to U3C U108A A118G A140U, the self-cleavage turned out to be 0.03.

With A5G A62U A114U, the self-cleavage is 0.12.

With U3C U39C G58U A82G A111G A126G, the self-cleavage was found to be 0.

A5G A22G U122C: the self-cleavage is 1.18.

Turning to A5G A30G A52G A67G, the self-cleavage was 0.63.

On to U3C U19C A82G U87C, for which the self-cleavage amounted to 0.15.

As to A5G A24G U26C A59G U103C U132C, the self-cleavage came to 0.25.

For U3C U38C A82G A126G, the self-cleavage was 0.17.

Turning to A5G A68G U131C, the self-cleavage stood at 0.25.

Consider A4G A30U U43C U130C, for which the self-cleavage was determined as 1.13.

In the case of A4G A13G A69G, the self-cleavage came out at 0.99.

Turning to A5G A62U A111G U130C U131C, the self-cleavage amounted to 0.04.

In the case of A4G A22G A118C U131C, the self-cleavage worked out at 0.97.

In the case of A5G A62G U87C A90G U102C G106A, the self-cleavage came out at 0.04.

A5G A13G U39C U43C: the self-cleavage is 0.65.

Turning to A5G G8A A59U G74A, the self-cleavage was determined as 0.35.

A5G A78G A96U A117U: the self-cleavage is 0.

In the case of A5C U19A U37C A55G U70A A82U, the self-cleavage was determined as 0.21.
